Results on 43 compounds are retold here after paper PMC4336329 (PLoS ONE, 2015).

Among all 310,000 compounds or so, about 14,000 (4.5%) showed an effect of 50% or more. Effects have a minus sign here. The list shows a part of the results.
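Also: peak tail current of the secondary pulse compared with the same well before compound.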

The experiment deals with human ether-à-go-go-related gene (hERG) potassium channel (human, UniProt Q12809). The experiment can be described thus: primary screen, population patch clamp on CHO cells stably expressing hERG.
human ether-à-go-go-related gene (hERG) potassium channel, sequence (Q12809 whole entry, looked up): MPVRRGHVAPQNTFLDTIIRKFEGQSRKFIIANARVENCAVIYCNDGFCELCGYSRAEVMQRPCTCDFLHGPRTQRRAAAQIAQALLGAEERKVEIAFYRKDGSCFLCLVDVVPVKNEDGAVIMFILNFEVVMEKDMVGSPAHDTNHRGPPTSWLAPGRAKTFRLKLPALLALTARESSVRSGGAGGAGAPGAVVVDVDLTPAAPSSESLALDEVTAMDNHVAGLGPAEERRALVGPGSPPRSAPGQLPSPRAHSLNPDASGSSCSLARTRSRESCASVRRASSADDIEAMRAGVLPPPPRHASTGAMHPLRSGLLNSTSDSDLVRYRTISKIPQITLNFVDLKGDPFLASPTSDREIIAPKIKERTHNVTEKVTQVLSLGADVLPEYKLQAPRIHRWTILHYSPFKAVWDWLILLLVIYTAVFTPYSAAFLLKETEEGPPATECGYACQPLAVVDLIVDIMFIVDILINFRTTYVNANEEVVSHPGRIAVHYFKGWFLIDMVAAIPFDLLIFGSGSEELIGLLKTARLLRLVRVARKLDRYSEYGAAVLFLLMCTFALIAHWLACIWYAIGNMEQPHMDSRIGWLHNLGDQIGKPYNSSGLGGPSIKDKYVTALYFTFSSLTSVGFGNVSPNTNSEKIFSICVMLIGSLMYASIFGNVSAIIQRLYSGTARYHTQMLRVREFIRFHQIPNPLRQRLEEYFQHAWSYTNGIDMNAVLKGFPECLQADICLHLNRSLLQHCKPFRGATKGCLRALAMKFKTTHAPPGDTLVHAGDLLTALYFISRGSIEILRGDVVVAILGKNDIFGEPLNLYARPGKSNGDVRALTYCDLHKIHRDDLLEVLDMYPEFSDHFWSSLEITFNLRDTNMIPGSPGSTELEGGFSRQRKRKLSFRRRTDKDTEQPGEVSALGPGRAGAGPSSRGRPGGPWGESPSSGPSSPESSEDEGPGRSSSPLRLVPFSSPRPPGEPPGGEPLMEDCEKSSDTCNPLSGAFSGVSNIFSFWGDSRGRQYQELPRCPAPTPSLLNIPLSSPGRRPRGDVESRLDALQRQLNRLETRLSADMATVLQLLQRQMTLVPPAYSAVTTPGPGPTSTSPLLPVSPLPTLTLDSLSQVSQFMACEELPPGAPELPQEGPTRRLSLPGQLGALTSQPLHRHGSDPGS
For the compound `Oc1[nH]c2ccccc2c1C=Nc1ccccc1`, the “hERG current change (%, negative = inhibition) at 10uM” value was -9.66%.
For `COC(=O)c1cc(C(=O)OCC(=O)c2ccc[nH]2)cc([N+](=O)[O-])c1`, the “hERG current change (%, negative = inhibition) at 10uM” value is on record as -11.5%.
Under `COc1ccc(O[C@H]2C=C[C@@H](c3ccccc3)O[C@@H]2CO/N=C(\C)CCN2CCc3nc(-c4ccccc4)c(-c4ccccc4)cc3C2)cc1` stands 6.94%; under `COc1ccc(/C([O-])=C(/C(=S)Nc2ccc(C)c(C)c2)n2c[n+](C)c3ccccc32)cc1OC`, 48.3%.
As to `C/C(CCc1ccccc1)=N\NC(=O)CCc1ccccc1`, the “hERG current change (%, negative = inhibition) at 10uM” value is -7%.
For `CC1(C)Cc2c(c(-c3ccccc3)nc(N3CCCC3)c2C(N)=O)CO1`, the “hERG current change (%, negative = inhibition) at 10uM” value amounted to 4.06%.
Consider `CCOC(=O)/C(C#N)=C/c1ccc(N2CCN(Cc3ccccc3)CC2)cc1`, for which the “hERG current change (%, negative = inhibition) at 10uM” value was -6.47%.
The result for `O=C(CSc1nc(-c2ccccc2)c(-c2ccccc2)o1)NCCCO` reads -31%; that for `COc1cccc(OC)c1OCCOCCN1CCN(C)CC1`, 20.8%.
The result for `COc1ccc(N(CC(=O)NCc2ccccc2Cl)S(=O)(=O)c2c(C)n[nH]c2C)cc1` reads 2.87%; that for `O=C(NCc1ccc2c(c1)OCO2)c1cc(Cl)ccc1Cl`, 11.9%.
On to `Cc1ccc2c(c1)c1c(n2CC(O)CN2CCOCC2)CCCC1.Cl` (stereo not shown), for which the “hERG current change (%, negative = inhibition) at 10uM” value was determined as 9.32%.
Under `CCc1ccccc1NC(=O)CSc1nc2[nH]c(=O)cc(O)c2s1` stands 16.3%.
The result for `CCCn1cc(S(=O)(=O)c2ccc(OC)cc2)c(=O)c2cc(OC)ccc21` reads -6.28%; that for `O=C(NCc1ccccc1)c1ccc(/C=N/O)nc1`, -6.57%.
The result for `CC(C)C1CC(=O)NC(SCC(=O)Nc2ccc(Br)cc2)=C1C#N` (stereo not shown) reads -2.52%; that for `O=C(C1CCCO1)N1CCN(Cc2c(O)ccc3ccccc23)CC1` (stereo not shown), -6.15%; that for `CCN1CCN(CCNC(=O)c2cn(C(C)c3ccccc3F)nn2)CC1` (stereo not shown), 9.37%.
Turning to `COc1ccc2cc(C=NS(=O)(=O)c3ccc(C)cc3)n(C)c2c1`, the “hERG current change (%, negative = inhibition) at 10uM” value is reported as 9.83%.
Under `Cc1cccc(NC(=S)NNC(=O)COc2ccc(Cl)cc2Cl)c1` stands 14.6%; under `COc1ccc(/C=N/NS(=O)(=O)c2ccccc2)cc1OS(=O)(=O)c1ccc(C)cc1`, 8.09%; under `NC(=O)C1CCN(C(=O)c2cc3c(s2)CCCC3)CC1`, -8.49%.
Under `C=CCOc1ccc(C(=O)Nc2ccc3c(c2)n(C)c(=O)n3C)cc1` stands -8.74%; under `CC(=O)Nc1ccc(C(=O)NNC(=O)C2CC2)cc1`, 30.7%.
Take `CCCCN(C)CCNC(=O)c1cc2cc3ccc(OC)cc3nc2o1`: the “hERG current change (%, negative = inhibition) at 10uM” value was -43%.
`Cc1cccc(NC(=O)c2ccc(S(=O)(=O)N3CCCCC3C)cc2)n1` (stereo not shown): the “hERG current change (%, negative = inhibition) at 10uM” value was -5.94%.
Under `CC12CCC(=O)N1C(C(=O)N1CCN(c3ccc(C(F)(F)F)cc3[N+](=O)[O-])CC1)CS2` (stereo not shown) stands -12.2%; under `CC1(C)OC(=O)C(C(c2ccccc2)C(C#N)C(N)=O)=C(O)O1.CCN(CC)CC` (stereo not shown), -5.82%; under `O=C(N/N=C/c1cccc(C(F)(F)F)c1)C1CCN(c2ncc(C(F)(F)F)cc2Cl)CC1`, 7.68%.
With `Cc1cc(N2C(=O)C(=O)/C(=C(/O)c3ccc(F)cc3)C2c2ccc(Cl)cc2)no1` (stereo not shown), the “hERG current change (%, negative = inhibition) at 10uM” value was 28.8%.
Under `COc1cc(NC(=O)Cn2nnc(-c3ccccc3N)n2)cc(OC)c1` stands 1.63%; under `CC(=O)C1=C(O)C(=O)N(c2ccc(Br)cc2)C1c1ccccc1[N+](=O)[O-]` (stereo not shown), -21.6%; under `O=C(Nc1ccccc1NC(=O)c1csnn1)c1csnn1`, 15.2%.
The result for `Cc1ccccc1C(=O)NC1CCN(Cc2ccccc2)CC1` reads -29.1%; that for `O=C(Cc1c[nH]c2ccccc12)N1CCN(c2ccccc2)CC1`, 7.12%; that for `O=C(CCc1ccccc1)Nc1sc2c(c1C(=O)O)CCCC2`, 16.3%.
On to `CCCOc1ccc(C(=O)NC2CCSc3ccccc32)cc1` (stereo not shown), for which the “hERG current change (%, negative = inhibition) at 10uM” value is given as 13%.
The result for `CCn1cnc2sc(C(=O)Oc3ccc(Br)cc3)c(C)c2c1=O` reads 18.2%; that for `Cc1ccc(S(=O)(=O)C2(C(=O)NCCc3ccccc3)CC2)cc1`, -1.15%.
As for `Cn1nc(N)nc1N1CCN(c2ccc(F)cc2)CC1`, the “hERG current change (%, negative = inhibition) at 10uM” value was found to be 17.6%.
The result for `Cc1cc(C)nc(SCC(=O)N/N=C/C=C/c2ccccc2)n1` reads -27.7%.
The result for `CC(=O)N1CCN(C(=O)CCC(=O)O)CC1` reads -2.1%.
Turning to `COc1ccc(NC(=O)N2CCCCC2c2cccnc2)cc1` (stereo not shown), the “hERG current change (%, negative = inhibition) at 10uM” value is -10.1%.
